{"source": "PubChem BioAssay AID686979", "about": "(National Center for Advancing Translational Sciences (NCATS), 2013)", "note": "The whole screen tested about 420,000 compounds, of which about 50,000 (12%) were called active. Inconclusive results, whose numbers are uncertain, are shown with a selection of clear calls. Calls come from the whole dose curve; as a rule, active = well fitted inhibition curve with a large enough effect; inconclusive = small, poorly fitted or top-dose-only effect; inactive = flat fitted curve, though single readings scatter. No potency is given beside an inconclusive call; the fits are too rough. % is set by controls: 0 for no effect and ±100 for the full control effect; potency is the fitted concentration of half-maximal effect; tags give direction and shape of the fitted curve."}
{"test": "qHTS for Inhibitors of human tyrosyl-DNA phosphodiesterase 1 (TDP1): qHTS in cells in presence of CPT; note: nearly all actives have a fitted effect of over 55% in size", "conditions": "chicken DT40 Tdp1-/-;hTDP1 cells + 20 nM CPT, ATP luminescence, 48 h; activity change, negative = growth inhibition: at 46.2 µM (top of the series) unless noted", "procedure,_shortened": "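Chicken DT40 Tdp1-/- cells complemented with human TDP1, 400 cells/well, exposed to compounds plus 20 nM camptothecin for at least 48 h at 37 C; viability read as ATP content by CellTiter-Glo luminescence.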"}
{"smiles": "CCN(CC)c1ccc(/C=N/NS(=O)(=O)c2ccc(C)c([N+](=O)[O-])c2)cc1", "Potency": "inactive"}
{"smiles": "COc1cc(C(=O)NC2CCN(C)CC2)ccc1Nc1ncc2c(n1)N(C1CCC(O)CC1)CCC(=O)N2C", "note": "(stereo not drawn)", "Potency": "active: 16.4 µM"}
{"smiles": "CCc1ccc(-c2nc(CN3CCC(C(=O)NCc4ccco4)CC3)c(C)o2)cc1", "Potency": "inconclusive [inhibitor, single point]"}
{"smiles": "CCOc1ccccc1N1Cc2ccccc2C1", "Potency": "inconclusive [inhibitor, single point]"}
{"smiles": "CCCCn1c(CCCNC(=O)c2ccco2)nc2ccccc21", "Potency": "inconclusive [inhibitor, single point]"}
{"smiles": "O=C(NNC(=O)c1ccccn1)c1cccc([N+](=O)[O-])c1", "Potency": "active: 16.4 µM"}
{"smiles": "CCc1cc[n+](-c2nc3ccccc3nc2[N-]S(=O)(=O)c2ccc(Br)s2)cc1", "Potency": "inconclusive [inhibitor, single point]"}
{"smiles": "Cc1ccc(C(=O)Nc2ccc(S(=O)(=O)N(Cc3ccccc3)c3ccccc3)cc2)cc1", "Potency": "active: 16.4 µM"}
{"smiles": "COc1ccc(C(=O)NC(=S)Nc2cccc(Cl)c2N2CCOCC2)cc1[N+](=O)[O-]", "Potency": "inconclusive [inhibitor, single point]"}
{"smiles": "O=C(NCCc1c[nH]c2ccccc12)C(=O)NCC(c1ccco1)N1CCN(c2ccccc2F)CC1", "note": "(stereo not drawn)", "Potency": "inconclusive [inhibitor, single point]"}
{"smiles": "CCOC(OCC)c1nc(N)[nH]c(=O)c1CCCCc1ccccc1", "Potency": "active: 23.1 µM"}
{"smiles": "CCNCC(=O)N1c2ccccc2CCc2ccc(NC(=O)OC(C)C)cc21", "Potency": "inconclusive [inhibitor, partial curve]"}
{"smiles": "Cc1c(C(=O)Nc2ccc3c(c2)OCO3)sc2nc(-c3ccccc3)cn12", "Potency": "inconclusive [inhibitor, full curve]"}
{"smiles": "CC(C)N(c1ccccc1)c1ccc(NC(=O)COC(=O)CCN2C(=O)c3cccc([N+](=O)[O-])c3C2=O)cc1", "Potency": "inconclusive [inhibitor, partial curve, poor fit]"}
{"smiles": "COC(=O)c1cc2sccc2n1Cc1ccc(F)cc1Cl", "Potency": "inactive"}
{"smiles": "Cc1cc(OCc2cc(C(=O)N(C)C3CCOCC3)no2)cc(C)c1Cl", "Potency": "inconclusive [inhibitor, single point]"}
{"smiles": "CC1CC(C)CN(c2oc(-c3ccccc3F)nc2C#N)C1", "note": "(stereo not drawn)", "Potency": "inconclusive [inhibitor, single point]"}
{"smiles": "COc1ccc(NC(=S)NCC2CCN(c3ccc(OC)cc3)C2)cc1", "note": "(stereo not drawn)", "Potency": "inconclusive [inhibitor, single point]"}
{"smiles": "O=C(CCC(=O)Nc1ccc(Br)cc1)N/N=C/c1cc([N+](=O)[O-])ccc1O", "Potency": "active: 23.1 µM"}
{"smiles": "COc1ccc(OC)c(CC2C(=O)Nc3ccc(Br)cc32)c1", "note": "(stereo not drawn)", "Potency": "active: 10.3 µM"}
{"smiles": "CCOC(=O)c1ccc(NC(=O)c2ccc(NS(C)(=O)=O)cc2)cc1", "Potency": "inconclusive [inhibitor, single point]"}
{"smiles": "O=C(COc1ccc(Br)cc1)NCC1COc2ccccc2O1", "note": "(stereo not drawn)", "Potency": "inactive"}
{"smiles": "Cc1ccc(C(=O)c2ccccc2C(=O)Nc2ccccc2)cc1", "Potency": "inconclusive [inhibitor, single point]"}
{"smiles": "Cc1nnc(SC(C)C(=O)Nc2ccc(Cl)cn2)n1Cc1ccccc1", "note": "(stereo not drawn)", "Potency": "inactive"}
{"smiles": "C[C@@H]1CN([C@@H](C)CO)C(=O)Cc2cc(NC(=O)Nc3cccc4ccccc34)ccc2O[C@@H]1CN(C)S(C)(=O)=O", "Potency": "inconclusive [inhibitor, single point]"}
{"smiles": "C[C@@H]1CN(Cc2nc(-c3ccc(Cl)cc3)no2)C[C@H](C)O1", "Potency": "inconclusive [inhibitor, single point]"}
{"smiles": "Cc1ccc(C(=O)N(CCN2CCCCC2)CC2CCCN(C3CCCC3)C2)s1", "note": "(stereo not drawn)", "Potency": "inconclusive [inhibitor, partial curve]"}
{"smiles": "Cc1c(CN(C)C(=O)CSc2nc(-c3ccco3)cc(C(F)(F)F)n2)cnn1C", "Potency": "inconclusive [inhibitor, single point]"}
{"smiles": "CCCCNC(=O)C1CCC(Cn2c(=O)c3sccc3n(CC(=O)Nc3ccccc3)c2=O)CC1", "note": "(stereo not drawn)", "Potency": "active: 14.6 µM"}
{"smiles": "N#Cc1ccc(NC(=O)C2Cc3ccccc3CN2S(=O)(=O)c2ccc(F)cc2)cc1", "note": "(stereo not drawn)", "Potency": "inconclusive [inhibitor, single point]"}
{"smiles": "CCN(CC)CCN1C(=O)C2C(C(=O)Nc3cccc(C)c3)C3C=CC2(O3)C1C(=O)NC1CCCC(C)C1C", "note": "(stereo not drawn)", "Potency": "inactive"}
{"smiles": "COC(=O)CCc1c(C)c(C(=O)c2cc(OC)c(OC)c(OC)c2)c2ccccn12", "Potency": "inconclusive [inhibitor, single point]"}
{"smiles": "CC(NC(=O)CCc1ccc(S(=O)(=O)NC2CCCCC2)cc1)c1ccccc1", "note": "(stereo not drawn)", "Potency": "inconclusive [inhibitor, partial curve]"}
{"smiles": "CN(CCCCCCCCCCN(C)C(=O)Oc1cccc([N+](C)(C)C)c1)C(=O)Oc1cccc([N+](C)(C)C)c1", "Potency": "active: 2.31 µM"}
{"smiles": "CCOC(=O)C1CCCN(C(=O)c2cc(Nc3ccc(OC)cc3OC)nc3ccccc23)C1", "note": "(stereo not drawn)", "Potency": "active: 16.4 µM"}
{"smiles": "N#C/C(C(N)=O)=C1/CCc2ccccc2N1", "activity change, negative = growth inhibition": "inconclusive: -30.1% [inhibitor]"}
{"smiles": "CCOC(=O)C1(C)CCCCN1C(=O)c1cccc(Cl)c1", "note": "(stereo not drawn)", "Potency": "active: 20.6 µM"}
{"smiles": "O=C(Nc1nccs1)c1ccc(S(=O)(=O)N2CCOCC2)cc1", "Potency": "inconclusive [inhibitor, single point]"}
{"smiles": "Cc1nc2cc(NC(=O)Nc3ccccc3Cl)ccc2n1C", "Potency": "inactive"}
{"smiles": "CC[C@H](C)[C@@H](COC=O)NC(=O)[C@H]1O[C@@H](n2ccc(N)nc2=O)[C@H](O)[C@@H]1O", "Potency": "inactive"}
{"smiles": "O=C(Nc1ccccc1C(=O)OCc1cc(=O)n2ccsc2n1)c1ccccc1Cl", "Potency": "inactive"}
{"smiles": "CC(=O)c1c(C)[nH]c(C(=O)NCc2ccc(C)cc2)c1C", "Potency": "inconclusive [inhibitor, single point]"}
{"smiles": "CNc1ccccc(C(=O)/C=C/c2ccccc2OC)c1=O", "Potency": "active: 18.4 µM"}
{"smiles": "O=C(C[C@H]1C[C@H](C(=O)N2CCCCC2)[C@@]2(CCc3ccccc3)c3[nH]c4ccc(Cl)cc4c3CCN2C1=O)NCCc1ccccn1", "Potency": "inconclusive [inhibitor, partial curve, poor fit]"}
{"smiles": "CC1(C)CC(=O)C2=C(C1)OC(N)=C(C#N)C21C(=O)N(Cc2ccccc2Cl)c2ccccc21", "note": "(stereo not drawn)", "Potency": "inconclusive [inhibitor, single point]"}
{"smiles": "C/C=C\\C=C\\C(=O)N1CC2(CC(c3cccc(NC(=O)COc4ccc(Cl)cc4)c3)=NO2)C[C@H]1C(N)=O", "note": "(stereo partly drawn)", "Potency": "inconclusive [inhibitor, single point]"}
{"smiles": "N#Cc1c(=O)c2nc(NCCCO)ncc2n2c(=O)c3ccccc3[nH]c12", "Potency": "inactive"}
{"smiles": "Cc1cc(SCC(=O)Nc2ccc(O)cc2)n2nc(C)c(-c3ccccc3)c2n1", "Potency": "inconclusive [inhibitor, single point]"}
{"smiles": "CCOC(=O)CN1C(=O)N[C@@H](c2cccs2)C(C(=O)OC)=C1C", "Potency": "inconclusive [inhibitor, single point]"}
{"smiles": "CC(C)c1cc(-c2cc(C(=O)NCc3ccccc3)on2)nc(NCC2CC2)n1", "Potency": "inconclusive [inhibitor, single point]"}
{"smiles": "COc1ccc(Oc2nc3c(c(=O)n(C)c(=O)n3C)n2Cc2ccc(Cl)cc2Cl)cc1", "Potency": "inconclusive [inhibitor, single point]"}
{"smiles": "COc1cc(=O)n2c(c1C(=O)N(C)Cc1ccsc1)CCN(Cc1c(C)nn(C)c1Cl)CC2", "Potency": "inactive"}
{"smiles": "CSc1ccccc1NC(=O)COc1ccc2c(c1)OCO2", "Potency": "inconclusive [inhibitor, full curve]"}
{"smiles": "NC1=NC[C@H](c2ccccc2)N1CCCCC1CCCCC1", "Potency": "active: 5.17 µM"}
{"smiles": "O=C(NC1CCCC1)C1CCCN(S(=O)(=O)c2cccc3cccnc23)C1", "note": "(stereo not drawn)", "Potency": "inconclusive [inhibitor, single point]"}
{"smiles": "CCC(=O)N1CCc2cc(Br)cc(S(=O)(=O)N3CCN(c4cc(C)ccc4C)CC3)c21", "Potency": "inactive"}
{"smiles": "CC1=C(C(=O)OC(C)C)C(c2cccc([N+](=O)[O-])c2)n2c(cc(=O)[nH]c2=S)N1", "note": "(stereo not drawn)", "Potency": "inactive"}
{"smiles": "CCC(=O)N1CCc2cc(Br)cc(S(=O)(=O)CCC(=O)Nc3ccc(Cl)cc3)c21", "Potency": "inactive"}
{"smiles": "CCOC(=O)c1cc(-c2ccc(C)cc2)n(CCC(=O)NCCc2ccc(C)cc2)c1C", "Potency": "inconclusive [inhibitor, single point]"}
{"smiles": "Cc1ccc(S(=O)(=O)N2CCc3ccccc3C2CN2C(=O)c3ccccc3C2=O)cc1", "note": "(stereo not drawn)", "Potency": "active: 22.4 µM"}
{"smiles": "CCN(CC)CCNC(=O)c1cn(CC)c2ccc(S(=O)(=O)N3CCc4ccccc4C3)cc2c1=O", "Potency": "inconclusive [inhibitor, single point]", "activity change, negative = growth inhibition": "inconclusive: -32.9% [inhibitor]"}
{"smiles": "Cc1ccc(C(=O)CCC(=O)N(C)CC(=O)Nc2c(Cl)cccc2Cl)cc1", "Potency": "inconclusive [inhibitor, partial curve]"}
{"smiles": "CCCCC(=NCCO)C1=C(O)C(C(=O)OC)C(C)(C)CC1=O", "note": "(stereo not drawn)", "Potency": "inconclusive [inhibitor, single point]"}
{"smiles": "CNc1nc(Oc2ccc(C(=O)OC)cc2)nc(SC)n1", "Potency": "inactive"}
{"smiles": "CC(C)c1ccc(N2C=Nc3ccc(C(C)C)cc3C2)cc1", "Potency": "inconclusive [inhibitor, single point]"}
{"smiles": "CCOC(=O)C1=C(C)Nc2[nH]c(=O)[nH]c(=O)c2C1c1cccs1", "note": "(stereo not drawn)", "Potency": "inactive"}
{"smiles": "COc1ccc(OC)c(NC(=O)NNC(=O)CCCOc2ccc(Cl)cc2C)c1", "Potency": "inconclusive [inhibitor, partial curve]"}
